Source: the supplement of paper PMC5499739
In all, about 16,000 sequences were measured (“Z-score”: median about -0.37, highest 2% from about 3.2 on). The list shows a part of the results.

Each sequence was assayed on RBM10 RRM1-ZnF (GST-tagged construct) (assay: RNAcompete 7-mer binding Z-score; higher = stronger binding preference).
Procedure, shortened: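 GST-tagged RBM10 constructs (20 pmol) and a designed pool of 241 399 RNAs up to 41 nt (1.5 nmol) were allowed to bind for 30 min at 4°C in 1 ml Hepes pH 7.8 buffer with glutathione Sepharose beads. After four 2-min washes at 4°C, bound RNA was identified by microarray hybridisation. Enrichment was scored per heptamer motif as a one-sided Z-score across the probes containing it.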

Going from GGCGUAA to AGUAAAA, the “RNAcompete 7-mer binding Z-score” value falls from 0.901 to -0.184.

Going from AGGCUCA to GGUUAUA, the “RNAcompete 7-mer binding Z-score” value rises from -0.292 to 0.764.

Going from GUAUCUC to AACAAGG, the “RNAcompete 7-mer binding Z-score” value rises from -0.594 to 2.03.

First: CAUCCCA
Second: UUGAGAU
The “RNAcompete 7-mer binding Z-score” value of the first is lower: -0.548 for the first, -0.223 for the second.

Compared with GUAGGUU, AGCAACA is lower in “RNAcompete 7-mer binding Z-score” value: 1.61 for the first, -0.158 for the second.

Going from CAACGAC to GGUCAGU, the “RNAcompete 7-mer binding Z-score” value rises from -0.457 to 0.566.

Going from GCCACCA to ACAUGUA, the “RNAcompete 7-mer binding Z-score” value rises from -0.363 to -0.123.

Going from UCUCGAG to CCCUGUU, the “RNAcompete 7-mer binding Z-score” value falls from -0.448 to -0.802.

Going from UCACAUC to GUCAGCG, the “RNAcompete 7-mer binding Z-score” value rises from -0.685 to 0.283.

Going from AAACGAA to GAUGCAA, the “RNAcompete 7-mer binding Z-score” value rises from -0.249 to 0.257.

Going from UCAGUUU to CCAGGAU, the “RNAcompete 7-mer binding Z-score” value rises from -0.672 to 0.404.

Compared with GGUAGAA, UCCAACG is lower in “RNAcompete 7-mer binding Z-score” value: 2.63 for the first, -0.477 for the second.

Going from GUUAAAU to CGAACAA, the “RNAcompete 7-mer binding Z-score” value falls from -0.0804 to -0.262.

Going from UUGAGGU to UCGGUGU, the “RNAcompete 7-mer binding Z-score” value falls from 1.63 to 0.524.

First: AGGUUAC
Second: UAUCCAU
The “RNAcompete 7-mer binding Z-score” value of the first is higher: 0.485 for the first, -0.659 for the second.

First: GCCCUAA
Second: UGCUUUU
The “RNAcompete 7-mer binding Z-score” value of the first is higher: -0.737 for the first, -0.902 for the second.

First: CAGAUGG
Second: CCAGGGC
The “RNAcompete 7-mer binding Z-score” value of the first is higher: 1.41 for the first, 0.93 for the second.

Compared with GUCCGGU, UCACCAC is lower in “RNAcompete 7-mer binding Z-score” value: 0.082 for the first, -0.428 for the second.

First: UUCAAUA
Second: UAUCUGC
The “RNAcompete 7-mer binding Z-score” value of the first is higher: -0.522 for the first, -0.756 for the second.

Going from ACAGUCG to ACCCUGG, the “RNAcompete 7-mer binding Z-score” value rises from -0.363 to -0.022.

Going from CGGUCGA to CUCUAGA, the “RNAcompete 7-mer binding Z-score” value falls from 0.03 to -0.629.

Going from CCCCACG to UCUUCCG, the “RNAcompete 7-mer binding Z-score” value falls from 0.00729 to -0.737.

First: GAAGGAA
Second: UGUCCCU
The “RNAcompete 7-mer binding Z-score” value of the first is higher: 4.56 for the first, -0.623 for the second.

First: CGCAGUU
Second: CGUACUU
The “RNAcompete 7-mer binding Z-score” value of the first is higher: -0.344 for the first, -0.802 for the second.

Going from AAAGACA to GAGUGUG, the “RNAcompete 7-mer binding Z-score” value rises from 0.0138 to 1.86.

First: CCAUGUC
Second: AUAAUCA
The “RNAcompete 7-mer binding Z-score” value of the first is lower: -0.808 for the first, -0.47 for the second.

First: AUUUCCG
Second: GCUAGCC
The “RNAcompete 7-mer binding Z-score” value of the first is lower: -0.782 for the first, -0.604 for the second.

Going from UAUAGCU to CGGGAUU, the “RNAcompete 7-mer binding Z-score” value rises from -0.529 to 1.53.

Compared with UAAACUA, GAUAUAC is higher in “RNAcompete 7-mer binding Z-score” value: -0.483 for the first, -0.249 for the second.

Going from UUUAUCG to AGCAGUC, the “RNAcompete 7-mer binding Z-score” value rises from -0.655 to -0.415.

Compared with UGAACAC, CUUUAAG is lower in “RNAcompete 7-mer binding Z-score” value: -0.347 for the first, -0.763 for the second.

Compared with UUUUAAA, CUGAGUG is higher in “RNAcompete 7-mer binding Z-score” value: -0.652 for the first, 0.293 for the second.

First: GUGCUUG
Second: CAUUCGG
The “RNAcompete 7-mer binding Z-score” value of the first is higher: -0.0804 for the first, -0.36 for the second.

First: GCGUAUG
Second: AUCGGCC
The “RNAcompete 7-mer binding Z-score” value of the first is higher: 0.186 for the first, -0.62 for the second.

First: UAGACGA
Second: AAGAUCC
The “RNAcompete 7-mer binding Z-score” value of the first is higher: 0.241 for the first, -0.561 for the second.

Going from GACAUCA to CGUAGUG, the “RNAcompete 7-mer binding Z-score” value rises from -0.422 to 0.121.

First: UAGGGAG
Second: GAGGCUC
The “RNAcompete 7-mer binding Z-score” value of the first is higher: 3.25 for the first, -0.0967 for the second.

Compared with AGUCCAC, UGUUCCU is lower in “RNAcompete 7-mer binding Z-score” value: -0.594 for the first, -0.815 for the second.

First: CUCACUG
Second: GACGUGG
The “RNAcompete 7-mer binding Z-score” value of the first is lower: -0.61 for the first, 1.98 for the second.

First: UGCUGGU
Second: GUGAGGC
The “RNAcompete 7-mer binding Z-score” value of the first is lower: 0.261 for the first, 1.53 for the second.

Going from UUGCCAU to UAACUGA, the “RNAcompete 7-mer binding Z-score” value rises from -0.902 to -0.295.

Going from AAGACUU to ACAAUGA, the “RNAcompete 7-mer binding Z-score” value rises from -0.464 to -0.353.

First: GUCUAAA
Second: CUCGAAA
The “RNAcompete 7-mer binding Z-score” value of the first is lower: -0.522 for the first, -0.431 for the second.

First: GGUGGCU
Second: AGAGGUC
The “RNAcompete 7-mer binding Z-score” value of the first is higher: 1.12 for the first, -0.123 for the second.

First: AACAGAG
Second: CAGUCCC
The “RNAcompete 7-mer binding Z-score” value of the first is higher: 0.768 for the first, -0.681 for the second.

Going from AACCGUU to UGGUGGC, the “RNAcompete 7-mer binding Z-score” value rises from -0.811 to 1.8.

Compared with ACGACAA, AGAUUAC is lower in “RNAcompete 7-mer binding Z-score” value: -0.288 for the first, -0.516 for the second.

Compared with UAUUUGA, GCGCGGC is higher in “RNAcompete 7-mer binding Z-score” value: -0.353 for the first, 0.927 for the second.

First: GAUCCAU
Second: CUUCCUU
The “RNAcompete 7-mer binding Z-score” value of the first is lower: -0.821 for the first, -0.756 for the second.

Going from AGUGCGC to UAUGUAG, the “RNAcompete 7-mer binding Z-score” value falls from 0.407 to 0.374.

First: GCCCAAC
Second: UGCGCCC
The “RNAcompete 7-mer binding Z-score” value of the first is lower: -0.578 for the first, -0.448 for the second.

First: UGAGAUG
Second: CGUACAA
The “RNAcompete 7-mer binding Z-score” value of the first is higher: 0.803 for the first, -0.448 for the second.

First: UUGCAUC
Second: GCAAGUA
The “RNAcompete 7-mer binding Z-score” value of the first is lower: -0.655 for the first, -0.103 for the second.

First: CCUCUCG
Second: AGAGAUA
The “RNAcompete 7-mer binding Z-score” value of the first is lower: -0.633 for the first, 0.384 for the second.

Compared with ACUCAUG, GAAGAUC is higher in “RNAcompete 7-mer binding Z-score” value: -0.655 for the first, 0.0235 for the second.

Compared with CCGGCAG, AUAACUA is lower in “RNAcompete 7-mer binding Z-score” value: -0.184 for the first, -0.48 for the second.

Going from GUCGUAA to CAACAGC, the “RNAcompete 7-mer binding Z-score” value falls from -0.214 to -0.467.

First: AAUGCCA
Second: UACGUUU
The “RNAcompete 7-mer binding Z-score” value of the first is higher: -0.457 for the first, -0.763 for the second.

Going from UGGAUAG to GAAGACG, the “RNAcompete 7-mer binding Z-score” value falls from 2.48 to 1.09.

First: AAUGACG
Second: GCCUUUG
The “RNAcompete 7-mer binding Z-score” value of the first is higher: 0.166 for the first, -0.727 for the second.

Going from CCCUGGC to ACUGGCU, the “RNAcompete 7-mer binding Z-score” value falls from -0.113 to -0.292.

Going from GAGAUCA to AACCCCC, the “RNAcompete 7-mer binding Z-score” value falls from 0.0138 to -0.171.

Compared with GGGCGAC, UCGGCCU is lower in “RNAcompete 7-mer binding Z-score” value: 1.81 for the first, -0.678 for the second.

Compared with GCGGGAG, UCGACCG is lower in “RNAcompete 7-mer binding Z-score” value: 2.86 for the first, -0.545 for the second.

Going from CAGCAGG to UGUUGAC, the “RNAcompete 7-mer binding Z-score” value falls from 0.794 to -0.314.

Going from CUACAUC to AUGGUUA, the “RNAcompete 7-mer binding Z-score” value rises from -0.811 to 2.05.

Going from CUUUGCC to CGGGGCA, the “RNAcompete 7-mer binding Z-score” value rises from -0.98 to 2.4.

Compared with AUGCGUU, AGACCCU is lower in “RNAcompete 7-mer binding Z-score” value: -0.405 for the first, -1.07 for the second.

Going from GAUUGGA to CGUGUGA, the “RNAcompete 7-mer binding Z-score” value falls from 2.24 to 0.0365.

Going from CAUCAGU to GUGAACG, the “RNAcompete 7-mer binding Z-score” value rises from -0.357 to 1.38.

Going from AUUUGUU to ACAGAAG, the “RNAcompete 7-mer binding Z-score” value rises from -0.568 to 0.595.

First: CCGCGUA
Second: AUGUGGU
The “RNAcompete 7-mer binding Z-score” value of the first is lower: -0.568 for the first, 1.52 for the second.

First: GACACUC
Second: CUGCGUG
The “RNAcompete 7-mer binding Z-score” value of the first is lower: -0.623 for the first, -0.337 for the second.

Compared with CCUCAUU, GAGACGA is higher in “RNAcompete 7-mer binding Z-score” value: -0.915 for the first, 0.517 for the second.

Going from CCUCUUC to UACUGCC, the “RNAcompete 7-mer binding Z-score” value rises from -0.785 to -0.659.

Going from AGAGACU to UUUAUAC, the “RNAcompete 7-mer binding Z-score” value falls from -0.545 to -0.756.

Compared with UUUCCGC, GUUGUAU is higher in “RNAcompete 7-mer binding Z-score” value: -0.824 for the first, -0.0317 for the second.

First: AUAUGUU
Second: UUCACUC
The “RNAcompete 7-mer binding Z-score” value of the first is higher: -0.405 for the first, -0.707 for the second.

Compared with CCUUAUC, UAAGUAU is higher in “RNAcompete 7-mer binding Z-score” value: -0.899 for the first, -0.389 for the second.

Compared with AUUCGAU, UCUGCAU is lower in “RNAcompete 7-mer binding Z-score” value: -0.581 for the first, -0.893 for the second.

Going from GCCUAUG to AACCGCA, the “RNAcompete 7-mer binding Z-score” value falls from -0.37 to -0.74.

Going from GACAUGU to GCGGCAC, the “RNAcompete 7-mer binding Z-score” value rises from -0.0642 to 0.413.

First: GCACCUG
Second: GUACAUA
The “RNAcompete 7-mer binding Z-score” value of the first is lower: -0.353 for the first, -0.301 for the second.

Compared with UGUGAAC, GGCACAA is lower in “RNAcompete 7-mer binding Z-score” value: 0.257 for the first, 0.0723 for the second.

First: GGGCCAC
Second: GCUUAAA
The “RNAcompete 7-mer binding Z-score” value of the first is higher: 0.144 for the first, -0.597 for the second.

Going from CAACGCU to GCUGCGA, the “RNAcompete 7-mer binding Z-score” value rises from -0.636 to -0.0934.

Compared with AUGUUAA, CGAAUCU is lower in “RNAcompete 7-mer binding Z-score” value: -0.448 for the first, -0.88 for the second.

Compared with GACAUUU, GGUCACU is higher in “RNAcompete 7-mer binding Z-score” value: -0.759 for the first, 0.0398 for the second.

Compared with AGUUCAA, GCACCCA is lower in “RNAcompete 7-mer binding Z-score” value: -0.334 for the first, -0.49 for the second.

Compared with ACAUAUG, UCCCUGU is lower in “RNAcompete 7-mer binding Z-score” value: -0.139 for the first, -0.763 for the second.

Going from CCAUCUU to GGAAUCU, the “RNAcompete 7-mer binding Z-score” value rises from -0.912 to -0.149.

With AAUUAGG the “RNAcompete 7-mer binding Z-score” value was 1.37.
